Experimental data as given in PubChem BioAssay AID1347417 (National Center for Advancing Translational Sciences (NCATS), 2020).
Where “and” joins values, the source holds several entries; their conditions need not be identical. Equal entries are not always repeated. Among all 120,000 compounds or so, about 5,300 (4.4%) were called active. Inconclusive results, whose numbers are uncertain, are shown with a selection of clear calls. Calls come from the whole dose curve; as a rule, active = well fitted inhibition curve with a large enough effect; inconclusive = small, poorly fitted or top-dose-only effect; inactive = no such curve, though single readings can be large or run the other way. Potencies of inconclusive entries are doubtful fits and often do not repeat.

Assay: qHTS Primary assay for Inhibitors of Plasmodium falciparum Dd2 growth in vitro; note: nearly all actives have a fitted effect of over 65% in size;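 for activity, negative = inhibition: plate controls were DMSO vehicle for no effect and reference drug for full effect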
Conditions: P. falciparum Dd2 growth, SYBR Green, 72 h; activity, negative = inhibition: at 28.9 µM (top of the series) unless noted; series mostly up to 28.9 µM
Summary of the method: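 Infected erythrocytes (Dd2, 0.3% parasitemia, 2.5% hematocrit final) are added to compound in RPMI-1640/Albumax II medium, grown 72 h at 37C in low oxygen, then lysed with saponin/Triton-X containing SYBR Green and read by fluorescence.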
Potency is the fitted concentration of half-maximal effect; tags give direction and shape of the fitted curve.

SMILES	activity, negative = inhibition	Potency	outcome
CN(Cc1ccncc1)C1CCOc2ccccc21 (stereo not drawn)	inactive: -6.11% [at 44.1 µM]		
C[C@@H]1CN(C(=O)c2cccnc2SCCc2ccccc2)CC[C@]1(C)O	inactive: 2.91%		
COc1ccc(CN2C[C@H]3CN(Cc4c[nH]c5ccccc45)CCN3C2=O)cc1		inconclusive: 0.631 µM [inhibitor, full curve, poor fit]	
COCC(=O)N1CCCC(C(=O)NCCc2noc(C3CCCC3)n2)C1 (stereo not drawn)	inactive: -13.9%		
O=C1CC(c2ccccc2)N(C(=O)C2CC2)CCCN(C(=O)c2ccsc2)CCN1 (stereo not drawn)		inconclusive: 20 µM [inhibitor, single point]	
COc1ccccc1CN1Cc2cc(NC(=O)c3ccc(OC)c(OC)c3)ccc2OC(C)C1=O (stereo not drawn)		inconclusive: 1.41 µM [inhibitor, partial curve, poor fit]	
COc1ccc(Nc2c(-c3ccc(Cl)cc3)nc3cnccn23)cc1OC		inconclusive: 17.8 µM [inhibitor, single point]	
CCn1c2c(c(=O)n1-c1ccccc1)CCN(C(=O)c1scnc1C)C2	inactive: 28.9% [at 44.1 µM]		
CC(C)CCCC1CN(C(=O)CCN2CCCCCC2=O)CCO1 (stereo not drawn)	inactive: -5.65%		
Cc1noc(C)c1-c1cc2cc(CN(C)C)oc2c(Nc2cccc([S+](C)(=O)[O-])c2)n1		inconclusive: 2.82 µM [inhibitor, partial curve, poor fit]	
Cc1cc(C)cc(Oc2coc3c(CN4CCN(C)CC4)c(O)ccc3c2=O)c1			inactive
COc1ccc(-n2nc(C3CCN(Cc4ccc(C(F)(F)F)cc4)CC3)[nH]c2=O)cc1		inconclusive: 794 nM [inhibitor, full curve, poor fit] and inconclusive: 6.31 µM [inhibitor, partial curve]	
CCOc1ccc(NC(=O)c2c(NC(=O)c3ccco3)sc3c2CCC(C(C)(C)C)C3)cc1 (stereo not drawn)		active: 10 µM	
CCN(Cc1noc(CC(C)C)n1)C(=O)c1ccc(C2CCCNC2)cc1 (stereo not drawn)		inconclusive: 12.6 µM [inhibitor, single point]	
Cc1ccc2nc(/C(C#N)=C/c3cccc(Br)c3)[nH]c2c1		inconclusive: 12.6 µM [inhibitor, single point]	
O=C(Cc1csc2ccccc12)NCc1cccc(Br)c1		inconclusive: 20 µM [inhibitor, single point]	
CN(C)S(=O)(=O)n1cc(/C=C(\NC(=O)c2ccccc2F)C(=O)NCCCn2ccnc2)c2ccccc21		inconclusive: 17.8 µM [inhibitor, single point]	
CCOC(=O)C1CCN(C(=O)CC(c2ccc(OC)c(OC)c2)c2c[nH]c3c(CC)cccc23)CC1 (stereo not drawn)		active: 1.26 µM	
CCc1noc(-c2ccc(NC(C)c3ccccc3)c([N+](=O)[O-])c2)n1 (stereo not drawn)		inconclusive: 11.2 µM [inhibitor, single point]	
COc1ccc(CNC(=O)N2C[C@@H](Oc3ccccc3)C[C@@H]2C(=O)N2CCOCC2)cc1	inactive: -2.5%		
CCc1ccc(CNC(=O)c2ccc(CSc3nc4ccncc4n3Cc3ccc(OC)cc3)cc2)cc1		active: 12.6 µM	

SMILES	activity, negative = inhibition	Potency	outcome
CCOc1ccccc1CN1CCC2(CCN(C(=O)c3ccccc3)CC2)Oc2ccccc21		inconclusive: 4.47 µM [inhibitor, single point]	
CCCN1CCN(C(=O)c2c(C)oc3c2CN(Cc2ccc(C)cc2)CC3)CC1		inconclusive: 12.6 µM [inhibitor, single point]	
O=C(Nc1ccccc1)c1ccc(N2CC3CCC(C2)N3CC(F)(F)F)nn1		inconclusive: 5.62 µM [inhibitor, partial curve, poor fit]	
N#C/C(=C\c1ccc(-c2ccccc2C(=O)O)o1)c1nc2ccccc2[nH]1		inconclusive: 6.31 µM [inhibitor, partial curve, poor fit]	
Fc1cccc(CN2CCC(Cc3nc(-c4ccccc4)n[nH]3)C2)c1 (stereo not drawn)		active: 3.55 µM	
COc1ccc(C(=O)N[C@@H]2CCC[C@@H]2C(=O)N2CCN(Cc3ccc(F)cc3)CC2)cc1	inactive: -18.5%		
Cc1noc(C)c1CC(=O)N1C[C@@H](COc2ccccc2)[C@H](C(N)=O)C1	inactive: 23.4%		
O=C(Cn1c(=O)n(Cc2ccco2)c(=O)c2ccc(C(=O)NC3CCCC3)cc21)Nc1ccc(F)cc1		inconclusive: 15.8 µM [inhibitor, single point]	
O=C1CO[C@H]2CN(Cc3ncc[nH]3)C[C@H]2N1Cc1cccnc1	inactive: 12.6% [at 44.1 µM]		
CCOC(=O)N1CCC(NC(=O)c2ccc3c(c2)N(Cc2cccc(C)c2)C(=O)c2ccccc2S3(=O)=O)CC1		active: 11.2 µM	
O=C(c1ccc(C(F)(F)F)cc1)N1CCC2(C1)C(=NC1CCCC1)NC(=O)N2c1cc(F)cc(F)c1 (stereo not drawn)		inconclusive: 11.2 µM [inhibitor, single point]	
COC(=O)c1c(C)oc2ccc(N(C(=O)c3ccncc3)S(=O)(=O)c3cc(C)c(C)cc3C)cc12		inconclusive: 12.6 µM [inhibitor, single point]	
CCO[C@H]1CN(c2cc(C)nc(-c3ccccc3O)n2)C[C@@H]1O		inconclusive: 11.2 µM [inhibitor, partial curve, poor fit]	
Cc1nc(N2CCCC2)c2c(C(=O)Nc3ccc(C)c(Cl)c3)c(C)oc2n1		inconclusive: 11.2 µM [inhibitor, single point]	
CCOC(=O)c1c(S(=O)(=O)N2CCC(C(=O)N3CCN(c4cccc(C)c4C)CC3)CC2)c(C)n(C)c1C		inconclusive: 10 µM [inhibitor, single point]	
COc1ccc([C@H]2C[C@@H](O)[C@@H](O)[C@@H]2NCc2ccccc2)cc1	inactive: -0.581% [at 44.1 µM]		
O=C(Cn1cccc1-c1nc(-c2ccc(F)cc2)no1)Nc1ccc(F)cc1		inconclusive: 3.98 µM [inhibitor, partial curve, poor fit]	
Cc1ccc2ncc(C(=O)NCc3ccccc3Cl)c(=O)n2c1	inactive: -9.42%		
CNC(C)c1ccc(Oc2ccccc2)cc1 (stereo not drawn)		active: 11.2 µM	
CCOCCn1c(=O)[nH]c2cc(C(=O)N(C)CCc3noc(C)n3)ccc21	inactive: -8.4%		
COc1ccc2[nH]c3c(c2c1)CCNC31CCN(C(=O)c2ccc(OC)nc2)CC1		inconclusive: 10 µM [inhibitor, partial curve, poor fit]	

SMILES	activity, negative = inhibition	Potency	outcome
O=C(c1ccc(OC(F)(F)F)cc1)N1CCC(c2n[nH]c(=O)n2-c2ccccc2)CC1	inactive: -14.1%		
CCCS(=O)(=O)c1ncc(Cl)c(C(=O)N2CCN(c3ccc(OC)cc3)CC2)n1		inconclusive: 3.98 µM [inhibitor, single point]	
CS(=O)(=O)N[C@H]1[C@H](O)[C@H](O)C[C@@H]1c1ccccc1	inactive: -5.87% [at 44.1 µM]		
O=C(NC1CC1)[C@@H]1CN(Cc2ccc(Cl)cc2F)C[C@H]1CO		active: 7.94 µM	
COc1ccc(-c2nc(C3CC3)nc3c2CCN(Cc2cccnc2)CC3)cc1		inconclusive: 1.26 µM [inhibitor, full curve]	
CCN1c2cc(C(=O)Nc3ccc4c(c3)OCCO4)ccc2C(=O)N2CCCCCC21 (stereo not drawn)		inconclusive: 12.6 µM [inhibitor, single point]	
CCC(=O)N1CCc2cc(Br)cc(S(=O)(=O)N3CCN(c4ccc(C(C)=O)cc4)CC3)c21		inconclusive: 1.26 µM [inhibitor, partial curve, poor fit]	
CC(=O)N1CCc2nn(CC(=O)Nc3ccc(C(F)(F)F)cc3)c(=O)cc2C1			inactive
Cc1cc(C)n(CCc2c(-c3ccccc3)ncn2CCCc2cccnc2)n1		inconclusive: 2.82 µM [inhibitor, single point]	
Cc1ccc(C)c(N2CCN(CCCNC(=O)C3COc4ccccc4C3)CC2)c1 (stereo not drawn)		inconclusive: 12.6 µM [inhibitor, single point]	
CC(=O)N1CC2(CCN(C3CCCCC3)CC2)Cc2ccccc21		inconclusive: 6.31 µM [inhibitor, partial curve, poor fit]	
CCOC(=O)c1ccc(NC(=O)N2Cc3[nH]cnc3C[C@H]2c2nc(C(C)C)no2)cc1		inconclusive: 15.8 µM [inhibitor, partial curve, poor fit]	
CCn1ncc(N2CCCC(CC(=O)Nc3ccc(C)c(C)c3)C2)cc1=O (stereo not drawn)		inconclusive: 6.31 µM [inhibitor, partial curve, poor fit]	
CCOc1ccccc1NC(=O)CC1CCCN(c2cnn(CC3CC3)c(=O)c2)C1 (stereo not drawn)		inconclusive: 17.8 µM [inhibitor, single point]	
CCOc1cccc2sc(N(Cc3cccnc3)C(=O)C3CCCCC3)nc12		inconclusive: 7.08 µM [inhibitor, partial curve]	
COc1ccc(C(=O)N[C@@H]2CCC[C@@H]2C(=O)N2CCN(c3ccccc3F)CC2)cc1		active: 10 µM	
Cc1ccc(NC(=O)CSc2nc3ccccc3c3nc(CCn4cncc4C)nn23)cc1F		inconclusive: 17.8 µM [inhibitor, single point]	
CCc1ccccc1NC(=O)c1ccc(F)c(S(=O)(=O)NC2CCCCCC2)c1		inconclusive: 8.91 µM [inhibitor, partial curve]	
O=S(=O)(c1ccccc1)N1CCCC(Cc2noc(-c3ccncc3)n2)C1 (stereo not drawn)		inconclusive: 0.0631 µM [inhibitor, full curve, poor fit]	
Cc1ccc(CCNC(=O)C2CCN(c3nnc(C)c4c(C)n(-c5ccccc5)nc34)CC2)cc1		inconclusive: 17.8 µM [inhibitor, partial curve, poor fit]	
COc1ccc(NC(=O)C2CCCN(C(=O)c3cnn(-c4ccc(F)cc4)c3-n3cccc3)C2)cc1 (stereo not drawn)		inconclusive: 11.2 µM [inhibitor, single point]	
